Measured values: article PMC7895950
These are yes or no findings as the source states them, for the method shown. Binding seen in cells or lysates may run through a third protein. Some binding calls cover weakened binding; strength is not graded here. For part of these data: Sequences can lack the tags named with a protein.

Sequences of proteins named here, by UniProt entry; tags and fusion partners are left off.
UniProt Q99496: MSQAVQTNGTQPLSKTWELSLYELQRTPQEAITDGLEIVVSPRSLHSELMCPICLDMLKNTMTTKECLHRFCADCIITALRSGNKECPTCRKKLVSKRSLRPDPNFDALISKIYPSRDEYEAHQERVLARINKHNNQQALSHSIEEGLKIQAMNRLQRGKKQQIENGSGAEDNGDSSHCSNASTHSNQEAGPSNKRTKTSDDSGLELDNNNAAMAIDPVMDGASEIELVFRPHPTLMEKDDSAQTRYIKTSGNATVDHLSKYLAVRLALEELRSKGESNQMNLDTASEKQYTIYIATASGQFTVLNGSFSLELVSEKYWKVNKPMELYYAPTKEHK
UniProt Q15910: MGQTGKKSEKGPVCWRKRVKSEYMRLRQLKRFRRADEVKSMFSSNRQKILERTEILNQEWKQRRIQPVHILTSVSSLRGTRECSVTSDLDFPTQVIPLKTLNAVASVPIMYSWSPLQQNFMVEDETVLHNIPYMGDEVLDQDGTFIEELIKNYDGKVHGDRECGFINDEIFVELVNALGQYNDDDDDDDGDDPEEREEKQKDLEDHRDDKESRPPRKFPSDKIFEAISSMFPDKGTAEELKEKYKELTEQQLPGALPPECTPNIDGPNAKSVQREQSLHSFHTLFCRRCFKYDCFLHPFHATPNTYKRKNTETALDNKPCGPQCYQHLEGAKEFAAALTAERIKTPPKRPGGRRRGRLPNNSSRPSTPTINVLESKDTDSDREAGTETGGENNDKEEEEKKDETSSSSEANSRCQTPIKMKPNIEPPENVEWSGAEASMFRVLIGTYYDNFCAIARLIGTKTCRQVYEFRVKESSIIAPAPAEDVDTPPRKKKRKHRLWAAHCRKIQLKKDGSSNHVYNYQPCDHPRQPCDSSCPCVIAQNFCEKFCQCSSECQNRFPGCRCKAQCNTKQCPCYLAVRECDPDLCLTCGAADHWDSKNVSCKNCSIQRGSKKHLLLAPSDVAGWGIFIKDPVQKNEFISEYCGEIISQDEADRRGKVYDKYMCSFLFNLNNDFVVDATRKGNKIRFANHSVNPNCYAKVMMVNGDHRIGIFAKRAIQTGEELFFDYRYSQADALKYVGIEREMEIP
UniProt O95863: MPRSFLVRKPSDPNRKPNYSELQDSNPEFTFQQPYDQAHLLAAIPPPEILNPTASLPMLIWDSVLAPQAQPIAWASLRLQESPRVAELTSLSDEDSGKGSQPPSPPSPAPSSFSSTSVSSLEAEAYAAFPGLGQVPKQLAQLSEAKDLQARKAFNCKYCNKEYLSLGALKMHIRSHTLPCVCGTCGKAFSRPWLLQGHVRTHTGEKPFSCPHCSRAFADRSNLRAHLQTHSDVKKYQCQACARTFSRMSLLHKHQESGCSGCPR
UniProt Q13547: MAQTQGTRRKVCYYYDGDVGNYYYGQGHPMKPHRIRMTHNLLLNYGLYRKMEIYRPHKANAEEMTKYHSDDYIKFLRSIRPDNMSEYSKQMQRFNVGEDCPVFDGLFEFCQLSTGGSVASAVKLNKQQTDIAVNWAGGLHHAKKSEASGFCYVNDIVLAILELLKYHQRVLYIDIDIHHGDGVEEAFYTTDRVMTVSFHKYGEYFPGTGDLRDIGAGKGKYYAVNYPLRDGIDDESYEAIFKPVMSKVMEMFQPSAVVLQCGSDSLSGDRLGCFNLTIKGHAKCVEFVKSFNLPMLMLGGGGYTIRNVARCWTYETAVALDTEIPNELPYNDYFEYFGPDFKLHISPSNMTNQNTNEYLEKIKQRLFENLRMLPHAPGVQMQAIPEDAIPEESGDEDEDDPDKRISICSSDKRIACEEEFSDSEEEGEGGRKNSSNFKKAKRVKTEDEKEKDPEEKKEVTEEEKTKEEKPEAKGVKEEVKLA
UniProt O00571: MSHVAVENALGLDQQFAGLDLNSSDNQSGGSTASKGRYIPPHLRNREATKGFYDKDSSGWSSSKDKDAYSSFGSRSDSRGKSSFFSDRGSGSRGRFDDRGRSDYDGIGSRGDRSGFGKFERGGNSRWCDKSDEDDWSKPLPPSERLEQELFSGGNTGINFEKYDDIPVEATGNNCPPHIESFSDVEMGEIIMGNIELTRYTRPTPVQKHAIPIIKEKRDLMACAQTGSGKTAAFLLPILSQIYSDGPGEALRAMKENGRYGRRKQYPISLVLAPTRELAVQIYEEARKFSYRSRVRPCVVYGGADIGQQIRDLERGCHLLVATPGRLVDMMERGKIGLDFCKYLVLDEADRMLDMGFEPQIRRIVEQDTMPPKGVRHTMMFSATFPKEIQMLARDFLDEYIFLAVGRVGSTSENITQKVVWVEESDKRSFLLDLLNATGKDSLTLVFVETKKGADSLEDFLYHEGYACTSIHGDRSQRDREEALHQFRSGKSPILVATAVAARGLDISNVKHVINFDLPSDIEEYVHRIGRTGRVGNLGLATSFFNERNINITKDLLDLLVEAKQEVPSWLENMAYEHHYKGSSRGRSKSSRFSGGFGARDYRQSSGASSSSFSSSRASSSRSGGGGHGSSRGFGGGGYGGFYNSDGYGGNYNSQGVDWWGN
UniProt P17844: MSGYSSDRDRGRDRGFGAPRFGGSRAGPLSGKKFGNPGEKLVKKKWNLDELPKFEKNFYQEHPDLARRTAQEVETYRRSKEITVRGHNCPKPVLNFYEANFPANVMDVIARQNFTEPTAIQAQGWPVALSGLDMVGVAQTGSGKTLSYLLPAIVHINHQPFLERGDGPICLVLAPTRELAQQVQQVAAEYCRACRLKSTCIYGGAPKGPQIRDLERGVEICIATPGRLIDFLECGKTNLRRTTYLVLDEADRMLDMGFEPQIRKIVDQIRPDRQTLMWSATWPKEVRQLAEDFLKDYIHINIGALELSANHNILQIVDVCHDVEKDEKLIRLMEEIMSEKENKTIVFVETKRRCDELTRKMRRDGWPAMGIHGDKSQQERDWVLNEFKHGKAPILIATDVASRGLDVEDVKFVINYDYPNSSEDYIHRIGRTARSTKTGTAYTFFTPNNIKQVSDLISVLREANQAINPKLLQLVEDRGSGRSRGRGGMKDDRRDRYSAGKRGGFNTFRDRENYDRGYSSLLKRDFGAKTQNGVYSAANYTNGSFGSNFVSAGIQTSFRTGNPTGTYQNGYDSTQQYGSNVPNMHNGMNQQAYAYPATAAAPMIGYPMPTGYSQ

What was measured:
[1] = biological target: HA-Ring1b (UniProt Q99496); assay: co-IP; 293T cells transfected with plasmids as indicated for 24 h; RIPA lysates, antibodies and protein A/G magnetic beads, western blot
[2] = biological target: T1, Flag-Twist2 (UniProt Q8WVJ9); assay: as above
T1 sequence: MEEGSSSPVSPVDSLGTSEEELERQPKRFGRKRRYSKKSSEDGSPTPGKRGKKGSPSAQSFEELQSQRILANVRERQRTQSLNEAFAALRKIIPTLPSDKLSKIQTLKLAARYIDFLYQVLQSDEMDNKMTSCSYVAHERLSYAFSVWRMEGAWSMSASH

[3] = biological target: Ezh2 (in 293T cells) (UniProt Q15910); assay: as above
[4] = biological target: Flag-Snail1 (UniProt O95863); assay: as above
[5] = biological target: Ring1b (endogenous, breast cell lines) (human (endogenous in MCF-10A, MCF-7, MDA-MB-231)) (UniProt Q99496); assay: co-IP; lysate of 231 (MDA-MB-231) cells, endogenous proteins; antibodies and protein A/G magnetic beads, western blot
[6] = biological target: Ring1b stably overexpressed in 10A cells (10A-Ring1b) (UniProt Q99496); assay: co-IP; lysate of 10A-Ring1b cells (MCF-10A stably overexpressing Ring1b); antibodies and protein A/G magnetic beads, western blot
[7] = biological target: Ring1b (endogenous, breast cell lines) (human (endogenous in MCF-10A, MCF-7, MDA-MB-231)) (UniProt Q99496); assay: co-IP; lysate of MCF-7 cells, endogenous proteins; antibodies and protein A/G magnetic beads, western blot
[8] = biological target: HA-HDAC1 (UniProt Q13547); assay: co-IP; 293T cells transfected with plasmids as indicated for 24 h; RIPA lysates, antibodies and protein A/G magnetic beads, western blot

Substance	binding [1]	binding [2]	binding [3]	binding [4]	binding [5]	binding [6]	binding [7]	binding [8]
Flag-DDX3X (from UniProt O00571 1-662)	binds	no binding	binds	–	–	–	–	–
Flag-DDX5 (from UniProt P17844 1-614)	binds	no binding	binds	no binding	–	–	–	–
DDX3X (endogenous, breast cell lines) (from UniProt O00571 1-662)	–	–	–	–	binds	binds	binds	–
DDX5 (endogenous, breast cell lines) (from UniProt P17844 1-614)	–	–	–	–	binds	binds	binds	–
Flag-Snail1 (from UniProt O95863 1-264)	–	–	binds	–	–	–	–	binds
